This is one part of the list. These are further read-outs of the screen, such as a control signal, another cell line or another target. No call is given for them. Most of these compounds were active or inconclusive in the main read-out, so they are no random draw. Words in brackets tell the shape of the fitted curve; partial curves, single points and poor fits give uncertain potencies.

The target of this experiment is Catechol O-methyltransferase (Homo sapiens) (UniProt P21964). Nature of the experiment: Confirmatory Screen for Target Class Profiling of Small Molecule Inhibitors of Methyltransferases (AID 1745852).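 Further: inhibitor potency for blocking SAH production.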 As to conditions: MTase-Glo luminescence, SAH detection, recombinant enzyme; measured here: COMT inhibition potency.
UniProt P21964, sequence (P21964 whole entry, looked up): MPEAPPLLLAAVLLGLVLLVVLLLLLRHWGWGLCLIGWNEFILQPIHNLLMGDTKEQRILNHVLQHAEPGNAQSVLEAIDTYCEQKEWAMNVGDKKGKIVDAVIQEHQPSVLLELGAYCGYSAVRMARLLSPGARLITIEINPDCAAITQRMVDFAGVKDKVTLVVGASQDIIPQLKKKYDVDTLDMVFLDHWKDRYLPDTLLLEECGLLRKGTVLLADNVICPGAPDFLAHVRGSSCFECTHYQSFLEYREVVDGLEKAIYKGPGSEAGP
Tags describe the fitted curve by direction and shape.

Broadly, the IC50 is the point on the concentration scale where inhibition reaches its midpoint. As for `CC1(CO)CC(O)C2(C)CCC3(C)C(=CCC4C5(C=O)CCC(OC6OC(C(=O)O)C(O)C(O)C6OC6OC(C(=O)O)C(O)C(O)C6O)C(C)(C)C5CCC43C)C2C1` (configuration not stated), the IC50 is 2.57 µM [falling, partial curve].

As for `COC(=O)C1=CO[C@@H](O[C@@H]2O[C@H](COC(=O)/C=C/c3cc(OC)c(O)c(OC)c3)[C@@H](O)[C@H](O)[C@H]2O)[C@@H]2C(CO)=CC[C@H]12`, the half-maximal inhibitory concentration (IC50) is 3.2 µM [falling, full curve].

For the compound `C=C1C(=O)O[C@@H]2CC(C)=C([C@@H](C)CCCOC(C)=O)[C@@H](O)[C@H]12`, the IC50 was 2.37 µM [falling, full curve].

With `OC[C@H]1O[C@@H](OCCc2ccccc2)[C@H](O[C@@H]2OC[C@@H](O)[C@H](O)[C@H]2O)[C@@H](O)[C@@H]1O`, the IC50 was 3.73 µM [falling, full curve].

Regarding `COc1cc(/C=C/C(=O)OC[C@H]2O[C@@](CO)(O[C@H]3O[C@H](CO)[C@@H](O)[C@H](O)[C@H]3O)[C@@H](OC(=O)/C=C/c3ccc(O)c(OC)c3)[C@@H]2O)ccc1O`, the 50% inhibitory concentration (IC50) is 5.07 µM [falling, partial curve].

Regarding `C=C1C(=O)OC2/C=C(\C)CC/C=C(\C=O)C(OC)C(OC(=O)C(C)CC)C12` (configuration not stated), the IC50 is 10.6 µM [falling, partial curve].

`CC(C)(O)/C=C1/C(=O)C(C)(C)C(=O)C(C)(C)C1(O)O[C@@H]1O[C@H](COC(=O)c2cc(O)c(O)c(O)c2)[C@@H](O)[C@H](O)[C@H]1O` (some centres not stated): the IC50 was 0.285 µM [falling, full curve].

(Values after PubChem BioAssay (NCATS).)
